Data published in patent US20230322928A1, “TREATMENT METHODS USING CTLA-4 AND PD-1 BISPECIFIC ANTIBODIES” (MedImmune, LLC, priority 2022, published 2023).

What was measured:
CD4+ T cell = conditions: 750 mg and 1500 mg MEDI5752 in combination with chemotherapy
T cell clones = experiment: Expanded T cell clones by T cell receptor sequencing (TCRseq); conditions: 750 mg and 1500 mg MEDI5752 in combination with chemotherapy
nonsquamous NSCLC = experiment: Phase 1 study: antitumor activity in non-squamous NSCLC expansion cohorts (with carboplatin/pemetrexed); type: in vivo, human; conditions: First line Non-squamous NSCLC
Description: The primary endpoint was OR, which is commonly used in oncology studies evaluating subjects with advanced solid tumors, including RCC or NSCLC. The primary objective for the squamous NSCLC expansion cohort was to evaluate the safety and tolerability of MEDI5752 in subjects with advanced solid tumors when combined with chemotherapy.
PD-L1 status will be assessed in subjects who have provided archival or fresh tumor biopsies. For the NSCLC expansion cohorts, PD-L1 positive is defined as baseline PD-L1 expression with tumor cell ≥1% and PD-L1 negative is defined as baseline PD-L1 expression with tumor cell <1%.

[1] = 500 mg with Carboplatin and Pemetrexed, N = 33
[2] = 750 mg with Carboplatin and Pemetrexed, N = 72
[3] = 750 mg with Carboplatin and Taxane, N = 18
[4] = 1500 mg with Carboplatin and Pemetrexed, N = 20

## MEDI5752: anti-PD-1/CTLA-4 bispecific antibody; light chain SEQ ID NO:1 and heavy chain SEQ ID NO:2 (PD-1), light chain SEQ ID NO:3 and heavy chain SEQ ID NO:4 (CTLA-4)
[1]
  Subjects with at least one MEDI5752-related AE (All Grades): 72.7%
  Subjects with at least one MEDI5752-related Grade 3 or 4 AE: 18.2%
[2]
  Subjects with at least one MEDI5752-related AE (All Grades): 80.6%
  Subjects with at least one MEDI5752-related Grade 3 or 4 AE: 36.1%
[3]
  Subjects with at least one MEDI5752-related AE (All Grades): 77.8%
  Subjects with at least one MEDI5752-related Grade 3 or 4 AE: 44.4%
[4]
  Subjects with at least one MEDI5752-related AE (All Grades): 100%
  Subjects with at least one MEDI5752-related Grade 3 or 4 AE: 70%
Monotherapy 225 mg, N = 10
  Subjects with at least one MEDI5752-related AE (All Grades): 70%
  Subjects with at least one MEDI5752-related Grade 3 or 4 AE: 10%
Monotherapy 500 mg, N = 38
  Subjects with at least one MEDI5752-related AE (All Grades): 86.8%
  Subjects with at least one MEDI5752-related Grade 3 or 4 AE: 31.6%
Monotherapy 750 mg, N = 40
  Subjects with at least one MEDI5752-related AE (All Grades): 95%
  Subjects with at least one MEDI5752-related Grade 3 or 4 AE: 55%
Monotherapy 1500 mg, N = 39
  Subjects with at least one MEDI5752-related AE (All Grades): 94.9%
  Subjects with at least one MEDI5752-related Grade 3 or 4 AE: 59%
Monotherapy, All, N = 178
  Subjects with at least one MEDI5752-related AE (All Grades): 89.3%
  Subjects with at least one MEDI5752-related Grade 3 or 4 AE: 46.1%
CD4+ T cell
  CD4+ T cell proliferation at cycle 1 day 8, versus pembrolizumab in combination with chemotherapy: higher increase
T cell clones
  Newly expanded T cell clones at cycle 2, versus pembrolizumab in combination with chemotherapy: higher proportion
Nonsquamous NSCLC; MEDI5752 1500 mg + carboplatin/pemetrexed (n = 20)
  Median PFS: 15.1 months

## Pembrolizumab [reference compound]
Nonsquamous NSCLC; Pembrolizumab + carboplatin/pemetrexed (n = 21)
  Median PFS: 8.9 months

Like-named read-outs stand apart in the source and are kept apart here.
